# Data as given in the supplement of paper PMC8728848.
# The list shows a part of the results.
# Tests used:
# Experiment in all cases: glycan array binding signal (z-score within array); higher = stronger binding
# Conditions in all cases: glycan notation: IUPAC condensed, linker removed
# [1] = target: Gal(b1-3)GlcNAc(a1-6)Gal(b1-4)GlcNAc
# Procedure, shortened: (§1)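 Arrays were curated from the Consortium for Functional Glycomics database, 3228 in total, and kept only where the protein sequence was available. Binding is expressed as a within-array Z-score. This score was averaged across arrays of the same protein sequence at different concentrations or buffers and across linkers, and negative values can be read as non-binding.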
# [2] = target: Gal(b1-3)GlcNAc(b1-2)Man(a1-3)[Gal(b1-3)GlcNAc(b1-2)Man(a1-6)]Man(b1-4)GlcNAc(b1-4)GlcNAc
# Procedure, shortened: as §1
# [3] = target: Gal(b1-3)GlcNAc(b1-2)Man(a1-3)[Gal(b1-3)GlcNAc(b1-2)Man(a1-6)]Man(b1-4)GlcNAc(b1-4)[Fuc(a1-6)]GlcNAc
# Procedure, shortened: as §1
# [4] = target: Gal(b1-3)GlcNAc(b1-2)[Gal(b1-3)GlcNAc(b1-6)]Man(a1-6)[Gal(b1-3)GlcNAc(b1-2)Man(a1-3)]Man(b1-4)GlcNAc(b1-4)GlcNAc
# Procedure, shortened: as §1
# [5] = target: Gal(b1-3)GlcNAc(b1-3)Gal(b1-3)GlcNAc
# Procedure, shortened: as §1
# [6] = target: Gal(b1-3)GlcNAc(b1-3)Gal(b1-4)Glc
# Procedure, shortened: as §1
# [7] = target: Gal(b1-3)GlcNAc(b1-3)Gal(b1-4)GlcNAc
# Procedure, shortened: as §1
# [8] = target: Gal(b1-3)GlcNAc(b1-3)Gal(b1-4)GlcNAc(b1-6)[Gal(b1-3)GlcNAc(b1-3)]Gal(b1-4)Glc
# Procedure, shortened: as §1
# [9] = target: Gal(b1-3)GlcNAc(b1-3)Gal(b1-4)[Fuc(a1-3)]GlcNAc(b1-6)[Gal(b1-3)GlcNAc(b1-3)]Gal(b1-4)Glc
# Procedure, shortened: as §1
# [10] = target: Gal(b1-3)GlcNAc(b1-3)GalNAc
# Procedure, shortened: as §1
# [11] = target: Gal(b1-3)GlcNAc(b1-6)Gal(b1-4)GlcNAc
# Procedure, shortened: as §1
# [12] = target: Gal(b1-3)[Fuc(a1-4)]GlcNAc
# Procedure, shortened: as §1
# [13] = target: Gal(b1-3)[Fuc(a1-4)]GlcNAc(b1-2)Man(a1-3)[Gal(b1-3)[Fuc(a1-4)]GlcNAc(b1-2)Man(a1-6)]Man(b1-4)GlcNAc(b1-4)GlcNAc
# Procedure, shortened: as §1
# [14] = target: Gal(b1-3)[Fuc(a1-4)]GlcNAc(b1-2)Man(a1-3)[Gal(b1-3)[Fuc(a1-4)]GlcNAc(b1-2)Man(a1-6)]Man(b1-4)GlcNAc(b1-4)[Fuc(a1-6)]GlcNAc
# Procedure, shortened: as §1
# [15] = target: Gal(b1-3)[Fuc(a1-4)]GlcNAc(b1-3)Gal(b1-3)[Fuc(a1-4)]GlcNAc
# Procedure, shortened: as §1
# [16] = target: Gal(b1-3)[Fuc(a1-4)]GlcNAc(b1-3)Gal(b1-4)GlcNAc
# Procedure, shortened: as §1
# [17] = target: Gal(b1-3)[Fuc(a1-4)]GlcNAc(b1-3)Gal(b1-4)[Fuc(a1-3)]GlcNAc
# Procedure, shortened: as §1
# [18] = target: Gal(b1-3)[GlcNAc(b1-6)]GalNAc
# Procedure, shortened: as §1
# [19] = target: Gal(b1-3)[Neu5Ac(a2-6)]GalNAc
# Procedure, shortened: as §1
# [20] = target: Gal(b1-3)[Neu5Ac(a2-6)]GlcNAc(b1-6)Gal(b1-4)Glc
# Procedure, shortened: as §1
# [21] = target: Gal(b1-3)[Neu5Ac(b2-6)]GalNAc
# Procedure, shortened: as §1
# Gal(b1-4)Gal = target: Gal(b1-4)Gal
# Procedure, shortened: as §1
# [22] = target: Gal(b1-4)GalNAc(a1-3)[Fuc(a1-2)]Gal(b1-4)GlcNAc
# Procedure, shortened: as §1
# [23] = target: Gal(b1-4)GalNAc(b1-3)[Fuc(a1-2)]Gal(b1-4)GlcNAc
# Procedure, shortened: as §1
# Gal(b1-4)Glc = target: Gal(b1-4)Glc
# Procedure, shortened: as §1
# Gal(b1-4)Glc6S = target: Gal(b1-4)Glc6S
# Procedure, shortened: as §1
# Gal(b1-4)GlcNAc = target: Gal(b1-4)GlcNAc
# Procedure, shortened: as §1
# [24] = target: Gal(b1-4)GlcNAc(a1-6)Gal(b1-4)GlcNAc
# Procedure, shortened: as §1
# Gal(b1-4)GlcNAc(b1-2)Man = target: Gal(b1-4)GlcNAc(b1-2)Man
# Procedure, shortened: as §1
# [25] = target: Gal(b1-4)GlcNAc(b1-2)Man(a1-3)Man(b1-4)GlcNAc(b1-4)GlcNAc
# Procedure, shortened: as §1
# [26] = target: Gal(b1-4)GlcNAc(b1-2)Man(a1-3)[Gal(b1-4)GlcNAc(b1-2)Man(a1-6)]Man(b1-4)GlcNAc(b1-4)GlcNAc
# Procedure, shortened: as §1
# [27] = target: Gal(b1-4)GlcNAc(b1-2)Man(a1-3)[Gal(b1-4)GlcNAc(b1-2)Man(a1-6)]Man(b1-4)GlcNAc(b1-4)[Fuc(a1-6)]GlcNAc
# Procedure, shortened: as §1
# [28] = target: Gal(b1-4)GlcNAc(b1-2)Man(a1-3)[Gal(b1-4)GlcNAc(b1-2)][GlcNAc(b1-4)]Man(b1-4)GlcNAc(b1-4)GlcNAc
# Procedure, shortened: as §1
# [29] = target: Gal(b1-4)GlcNAc(b1-2)Man(a1-3)[GlcNAc(b1-2)Man(a1-6)]Man(b1-4)GlcNAc(b1-4)GlcNAc
# Procedure, shortened: as §1
# [30] = target: Gal(b1-4)GlcNAc(b1-2)Man(a1-3)[Man(a1-6)]Man(b1-4)GlcNAc(b1-4)GlcNAc
# Procedure, shortened: as §1
# [31] = target: Gal(b1-4)GlcNAc(b1-2)Man(a1-6)Man(b1-4)GlcNAc(b1-4)GlcNAc
# Procedure, shortened: as §1
# [32] = target: Gal(b1-4)GlcNAc(b1-2)Man(a1-6)[GlcNAc(b1-2)Man(a1-3)]Man(b1-4)GlcNAc(b1-4)GlcNAc
# Procedure, shortened: as §1
# [33] = target: Gal(b1-4)GlcNAc(b1-2)Man(a1-6)[Man(a1-3)]Man(b1-4)GlcNAc(b1-4)GlcNAc
# Procedure, shortened: as §1
# [34] = target: Gal(b1-4)GlcNAc(b1-2)[Gal(b1-4)GlcNAc(b1-4)]Man(a1-3)[Gal(b1-4)GlcNAc(b1-2)Man(a1-6)]Man(b1-4)GlcNAc(b1-4)GlcNAc
# Procedure, shortened: as §1
# [35] = target: Gal(b1-4)GlcNAc(b1-2)[Gal(b1-4)GlcNAc(b1-4)]Man(a1-3)[Gal(b1-4)GlcNAc(b1-2)[Gal(b1-4)GlcNAc(b1-6)]Man(a1-6)]Man(b1-4)GlcNAc(b1-4)GlcNAc
# Procedure, shortened: as §1
# [36] = target: Gal(b1-4)GlcNAc(b1-2)[Gal(b1-4)GlcNAc(b1-4)]Man(a1-3)[GlcNAc(b1-4)][Gal(b1-4)GlcNAc(b1-2)Man(a1-6)]Man(b1-4)GlcNAc(b1-4)GlcNAc
# Procedure, shortened: as §1
# [37] = target: Gal(b1-4)GlcNAc(b1-2)[Gal(b1-4)GlcNAc(b1-4)]Man(a1-3)[GlcNAc(b1-4)][Gal(b1-4)GlcNAc(b1-2)[Gal(b1-4)GlcNAc(b1-6)]Man(a1-6)]Man(b1-4)GlcNAc(b1-4)GlcNAc
# Procedure, shortened: as §1
# [38] = target: Gal(b1-4)GlcNAc(b1-2)[Gal(b1-4)GlcNAc(b1-6)]Man(a1-6)[Gal(b1-4)GlcNAc(b1-2)Man(a1-3)]Man(b1-4)GlcNAc(b1-4)GlcNAc
# Procedure, shortened: as §1
# [39] = target: Gal(b1-4)GlcNAc(b1-2)[Gal(b1-4)GlcNAc(b1-6)]Man(a1-6)[GlcNAc(b1-4)][Gal(b1-4)GlcNAc(b1-2)Man(a1-3)]Man(b1-4)GlcNAc(b1-4)GlcNAc
# Procedure, shortened: as §1
# [40] = target: Gal(b1-4)GlcNAc(b1-3)Gal(b1-3)GlcNAc
# Procedure, shortened: as §1
binder,measurement,setting,value
"Eosinophil cationic protein (ECP) (Homo sapiens), P12724 (protein) MVPKLFTSQICLLLLLGLMGVEGSLHARPPQFTRAQWFAIQHISLNPPRCTIAMRAINNYRWRCKNQNTFLRTTFANVVNVCGNQSIRCPHNRTLNNCHRSRFRVPLLHCDLINPGAQNISNCTYADRPGRRFYVVACDNRDPRDSPRYPVVPVHLDTTI",glycan array binding signal (z-score),[1],-0.238
same,glycan array binding signal (z-score),[2],-0.176
same,glycan array binding signal (z-score),[3],0.147
same,glycan array binding signal (z-score),[4],-0.092
same,glycan array binding signal (z-score),[5],0.025
same,glycan array binding signal (z-score),[6],-0.253
same,glycan array binding signal (z-score),[7],0.202
same,glycan array binding signal (z-score),[8],0.276
same,glycan array binding signal (z-score),[9],-0.22
same,glycan array binding signal (z-score),[10],-0.014
same,glycan array binding signal (z-score),[11],-0.17
same,glycan array binding signal (z-score),[12],-0.208
same,glycan array binding signal (z-score),[13],0.007
same,glycan array binding signal (z-score),[14],0.256
same,glycan array binding signal (z-score),[15],-0.059
same,glycan array binding signal (z-score),[16],0.054
same,glycan array binding signal (z-score),[17],-0.2
same,glycan array binding signal (z-score),[18],-0.518
same,glycan array binding signal (z-score),[19],0.086
same,glycan array binding signal (z-score),[20],0.277
same,glycan array binding signal (z-score),[21],-0.096
same,glycan array binding signal (z-score),Gal(b1-4)Gal,-0.507
same,glycan array binding signal (z-score),[22],-0.056
same,glycan array binding signal (z-score),[23],-0.133
same,glycan array binding signal (z-score),Gal(b1-4)Glc,-0.201
same,glycan array binding signal (z-score),Gal(b1-4)Glc6S,-0.127
same,glycan array binding signal (z-score),Gal(b1-4)GlcNAc,0.034
same,glycan array binding signal (z-score),[24],-0.081
same,glycan array binding signal (z-score),Gal(b1-4)GlcNAc(b1-2)Man,0.036
same,glycan array binding signal (z-score),[25],-0.103
same,glycan array binding signal (z-score),[26],-0.169
same,glycan array binding signal (z-score),[27],0.16
same,glycan array binding signal (z-score),[28],-0.099
same,glycan array binding signal (z-score),[29],-0.142
same,glycan array binding signal (z-score),[30],-0.196
same,glycan array binding signal (z-score),[31],-0.08
same,glycan array binding signal (z-score),[32],-0.194
same,glycan array binding signal (z-score),[33],0.017
same,glycan array binding signal (z-score),[34],-0.304
same,glycan array binding signal (z-score),[35],-0.332
same,glycan array binding signal (z-score),[36],-0.165
same,glycan array binding signal (z-score),[37],-0.153
same,glycan array binding signal (z-score),[38],0.104
same,glycan array binding signal (z-score),[39],-0.105
same,glycan array binding signal (z-score),[40],-0.333
